Test results as given in the RNAGym collection of RNA variant scans (doi:10.1093/nar/gkz1192).
The source gives no read counts; variants with many changes may rest on few reads.

B1: CPEB3 Ribozyme (parent)
chain: UAACAGGGGGCCACAGCAGAAGCGUUCACGUCGCAGCCCCUGUCAGAUUCUGGUGAAUCUGCGAAUUCUGCUGUAUAUCUC

Variants of: B1
Experiment: self-cleavage, relative activity (ratio to wild type); higher = more cleavage; in vitro, sequencing
In short: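 After error-prone PCR and barcoding, CPEB3 ribozyme mutant libraries were transcribed with T7 RNA polymerase at 37°C for 5 hours, then given 15 min with DNase I before an EDTA stop, and they cleaved during both steps. Reverse transcription with template switching preceded Illumina sequencing. Relative activity divides a variant's cleaved/total read fraction by the unmutated ribozyme's. At least 5 reads were required per variant, and three batches were averaged.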

Row | Variant | self-cleavage
1 | UAACAGGGGGCCACUGCAGAAGCGUUCACGUCGCAGCCCUUGUCAGAUUCUGGUGAAUCAGCGAAUUCUGCUGUAUAUCUC [A15U C40U U60A] | 0.11
2 | UAACAGGGGGCCACUGCAGAAGCGUUCACGUCGCAGCCCCUGUGAGAUUCUGGUGAAUCUGCGAAUUCUGCUGUAUCUCUC [A15U C44G A77C] | 0.09
3 | UAACAGGGGGCCACUGCAGAAGCGUUCACGUCGCAGCCCCUGUCAGAUUUUGGUGAAUCUGCGAACUCUGCUGUAUAUCUC [A15U C50U U66C] | 0
4 | UAACAGGGGGCCACUGCAGAAGCGUUCACGUCGCAGCCCCUGUCAGAUUCUGGUGAAUCUGUGAGUUCUGCUGUAUAUCUC [A15U C62U A65G] | 0.23
5 | UAACAGGGGGCCACUACAGAAGCGCUCACGUCGCAGCCCCUGUCAGAUUCUGGUGAAUCUGCGAAUUCUGCUAUAUAUCUC [A15U G16A U25C G73A] | 0.06
6 | UAACAGGGGGCCACUACAGAAGCGUUCACGUCGCAGCCCCGGUCAGAUUCUGGCGAAUCUGCGGAUUCUGCUGUAUAUCUU [A15U G16A U41G U54C A64G C81U] | 0.09
7 | UAACAGGGGGCCACUCCAGAAGCGUUCACGUCGCAGCCCCUGUCAGACUCUGGUGAACCUGCGAAUUCUGCAGUAUAUCUC [A15U G16C U48C U58C U72A] | 0.08
8 | UAACAGGGGGCCACUGCAUAAGCGUUCCCGUCGCAGCCCCUGUCAGAUUCUGGUGGAUCUGCUAAUUCUGCUGUAUAUCUC [A15U G19U A28C A56G G63U] | 0.12
9 | UAACAGGGGGCCACUGCAGAAGCAUUCACGUCGCAGCCCCUGACAGAUUCUGGUGGAUCUGCUAAUUCUACUGUAUAUCUC [A15U G24A U43A A56G G63U G70A] | 0.06
10 | UAACAGGGGGCCACUGCAGAAGCGUUCACAUCGCAGCCCCUGUCAGAUUCCGGUGAAUCUGCGAAUUCUGCUGUAUAUCUC [A15U G30A U51C] | 0.09
11 | UAACAGGGGGCCACUGCAGAAGCGUUCACAUCGCAGCCCCUGUCAGAUUCUGGCGAAUCUGCGGAUUCUGCUGUAUAUCUC [A15U G30A U54C A64G] | 0.06
12 | UAACAGGGGGCCACUGCAGAAGCGUUCACUUCGCAGCCCCUGUCUGAUUCUGGUGAAUCUGCGAAUUCUGCUGUAUAUCUC [A15U G30U A45U] | 0.15
13 | UAACAGGGGGCCACUGCAGAAGCGUUCACGUCACAGCCCCUGUCAGAUUCUGGUGACUCUGCGAAUUCUGCUGUAUAUCUC [A15U G33A A57C] | 0.25
14 | UAACAGGGGGCCACUGCAGAAGCGUUCACGUCACAGCCCCUGUCAGAUUCUAGUGAAUCUGCGAAUUCUGCUGUAUAUCUC [A15U G33A G52A] | 0.2
15 | UAACAGGGGGCCACUGCAGAAGCGUUCACGUCACAGCCCCUGUCAGAUACUGGUGAAUCUGCGAAUUCUGCUGUAUAUCUC [A15U G33A U49A] | 0.27
16 | UAACAGGGGGCCACUGCAGAAGCGUUCACGUCACAGCCCCUGUCAGAUACUGGUGAAUCUGCGAAUUCUGCUGUAUACCUC [A15U G33A U49A U78C] | 0.17
17 | UAACAGGGGGCCACUGCAGAAGCGUUCACGUCCCAGCCCCUGUCAGAUUCUGGGGAAUCUGCGAAUUCUGCUGUAUAUCUC [A15U G33C U54G] | 0.14

Row | Variant | self-cleavage
18 | UAACAGGGGGCCACUGCAGAAGCGUUCACGUCGCAACCCCUGUCAGAUUCUGGUGAAUCUGCGGAUUCUGCUGUAUAUCUC [A15U G36A A64G] | 0.17
19 | UAACAGGGGGCCACUGCAGAAGCGUUCACGUCGCAGCCCCUUUCAGAUUCUGGUGAAUCUGCGAAUUCUGCUGUAUAUCCC [A15U G42U U80C] | 0.07
20 | UAACAGGGGGCCACUGCAGAAGCGUUCACGUCGCAGCCCCUGUCAAAUUCUUGUGAAUCUGCGAAUUCUGCUGUAUAUCUC [A15U G46A G52U] | 0.23
21 | UAACAGGGGGCCACUGCAGAAGCGUUCACGUCGCAGCCCCUGUCAGAUUCUCGUGAGUCAGCGAAUCCUGCUGUAUAUCUC [A15U G52C A57G U60A U67C] | 0.06
22 | UAACAGGGGGCCACUGCAGAAGCGUUCACGUCGCAGCCCCUGUCAGAUUCUGCUGAAUCUGCAAAUUCUGCCGUAUAUCCC [A15U G53C G63A U72C U80C] | 0.4
23 | UAACAGGGGGCCACUGCAGAAGCGUUCACGUCGCAGCCCCUGUCAGAUUCUGGUAAGUCUGCGAAUUCUGCUGUAUAUCUC [A15U G55A A57G] | 0.24
24 | UAACAGGGGGCCACUGCAGAAGCGUUCACGUCGCAGCCCCUGUCAGAUUCUGGUGAAUCUGCUAAUUCUGCUGCAUAUCUC [A15U G63U U74C] | 1.24
25 | UAACAGGGGGCCACUGCAGAAGCGAACACGUCGCAGCCCCUGCCAGAUUCAGGUGAAUCCGCGAAUUCUGCUGUAUAACUC [A15U U25A U26A U43C U51A U60C U78A] | 0.04
26 | UAACAGGGGGCCACUGCAGAAGCGACCACGUCGCAGCCCCUGUCAGAUUCUGGUGAAUCUGCGAAUUCUGCUGUAUAUCUC [A15U U25A U26C] | 0.4
27 | UAACAGGGGGCCACUGCAGAAGCGCUCACGUCGCAGCCCCUGUCUGGUUCUGGUGACUCUGCGAAUUCUGCUGUAUAUCUC [A15U U25C A45U A47G A57C] | 0.14
28 | UAACAGGGGGCCACUGCAGAAGCGCUCACGUCGCAGCCCCUGUCAGAUUCUGGUGAAUCUGCGUAUUCUGCUGUAUAUCUC [A15U U25C A64U] | 0.2
29 | UAACAGGGGGCCACUGCAGAAGCGCUCACGUCGCAGCCCCUGUCAGAUUCUGGUGAAUUUGCGAAUUCCGCUGUAAAUCUC [A15U U25C C59U U69C U76A] | 0.07
30 | UAACAGGGGGCCACUGCAGAAGCGCUCACGUCGCAGCCCCUGUCAGAUUCUGAGGAAUCUGCGAAUUCUGCUGUCUAUCUC [A15U U25C G53A U54G A75C] | 0.06
31 | UAACAGGGGGCCACUGCAGAAGCGCACACGUCGCAGCCCCUGUCAGAUUCUGGUGAAUCUGCGAAUUCUGCUGUAUAUCUC [A15U U25C U26A] | 0.31
32 | UAACAGGGGGCCACUGCAGAAGCGCUCACGUCGCAGCCCCUGUCAGAUUCUGGAGAAUCUGCGAAUUCUGCUGUAUAUCUC [A15U U25C U54A] | 0.51
33 | UAACAGGGGGCCACUGCAGAAGCGCUCACGUCGCAGCCCCUGUCAGAUUCUGGGGAAUCUGCGAAUUCUGCUGUAUAUCUC [A15U U25C U54G] | 0.22
34 | UAACAGGGGGCCACUGCAGAAGCGGACACGUCACAGCUCCUGUCAGAUUCUGGUGAUUCUGCGAAUUCUGCUGUAUAUCUC [A15U U25G U26A G33A C38U A57U] | 0.07
